Results as given in PubChem BioAssay AID624170 (National Center for Advancing Translational Sciences (NCATS), 2012).
Screen size: about 410,000 compounds; about 850 (0.21%) were called active. Inconclusive results, whose numbers are uncertain, are shown with a selection of clear calls. Calls come from the whole dose curve; as a rule, active = well fitted inhibition curve with a large enough effect; inconclusive = small, poorly fitted or top-dose-only effect, or another doubt; inactive = no such curve, though single readings can be large or run the other way. Potencies of inconclusive entries are left out as doubtful fits.

target: Glutaminase kidney isoform, mitochondrial (Homo sapiens) (UniProt O94925); experiment: qHTS for Inhibitors of Glutaminase (GLS); details: GLS enzymatic activity, qHTS titration; series mostly up to 45.5 µM
UniProt O94925, sequence (O94925 whole entry, looked up, canonical isoform): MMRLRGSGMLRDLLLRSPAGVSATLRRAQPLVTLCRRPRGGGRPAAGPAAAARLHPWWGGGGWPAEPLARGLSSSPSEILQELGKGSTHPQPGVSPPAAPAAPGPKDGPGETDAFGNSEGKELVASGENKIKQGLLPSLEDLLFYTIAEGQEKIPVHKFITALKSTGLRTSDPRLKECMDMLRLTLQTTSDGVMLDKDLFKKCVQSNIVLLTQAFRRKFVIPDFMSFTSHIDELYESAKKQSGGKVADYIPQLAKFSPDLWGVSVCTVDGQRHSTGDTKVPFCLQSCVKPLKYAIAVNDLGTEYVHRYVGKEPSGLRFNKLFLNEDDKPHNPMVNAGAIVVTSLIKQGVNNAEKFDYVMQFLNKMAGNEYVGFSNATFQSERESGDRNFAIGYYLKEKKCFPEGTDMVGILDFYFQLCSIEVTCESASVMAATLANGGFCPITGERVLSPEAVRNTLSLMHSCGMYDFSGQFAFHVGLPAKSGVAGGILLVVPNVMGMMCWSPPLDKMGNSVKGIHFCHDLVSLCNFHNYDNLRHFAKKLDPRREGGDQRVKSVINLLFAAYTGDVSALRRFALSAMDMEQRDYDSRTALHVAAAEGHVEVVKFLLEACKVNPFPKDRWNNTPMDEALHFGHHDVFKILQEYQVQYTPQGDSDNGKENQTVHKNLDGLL
Method in brief: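 Compounds were pin-transferred onto hKGA, after which L-glutamine (1 mM solution) and a detection mix of glutamate oxidase, HRP and Amplex Red were added. Initial and 30 min RT fluorescence reads were collected.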
Potency is the fitted concentration of half-maximal effect; tags give direction and shape of the fitted curve.

Row | SMILES | Potency
1 | Cc1ccc(-c2cc(C(=O)N3CCN(S(=O)(=O)c4ccc(Br)cc4)CC3)[nH]n2)c(C)c1 | inactive
2 | CC1=CC(C)(C)Nc2ccc(OC(=O)CN3C(=O)C4CCCCC4C3=O)cc21 (stereo unspecified) | inconclusive [inhibitor, partial curve]
3 | CC(=O)c1cccc(-c2cnc3c(NC=O)cc(-c4ccc(C(=O)N5CCOCC5)cc4)cn23)c1 | inconclusive [inhibitor, partial curve, poor fit]
4 | CNC(=O)c1c(NC(=O)c2ccc(S(=O)(=O)N3CCCc4ccccc43)cc2)sc2c1CCN(C)C2 | inconclusive [inhibitor, single point]
5 | CC(=O)Nc1ccc(Oc2cc(C#N)c(C#N)cc2N2CCCCCC2)cc1 | inactive
6 | O=C(Cc1noc2ccccc12)NNC(=S)Nc1ccc(Cl)cc1 | inconclusive [inhibitor, single point]
7 | O=c1oc2ccccc2c(O)c1/C=C1\C=Nc2ccccc21 | inconclusive [inhibitor, single point]
8 | Cc1ccc(S(=O)(=O)NCCC(=O)NCC(c2ccc(F)cc2)N2CCOCC2)cc1 (stereo unspecified) | inconclusive [inhibitor, single point]
9 | C/C(=N\Nc1nc2ccccc2[nH]1)c1cc2ccccc2o1 | inconclusive [inhibitor, single point]
10 | COc1cc(C=NNC(=O)c2ccc(NS(=O)(=O)c3cccs3)cc2)cc(Br)c1O | inactive
11 | Cc1noc(C)c1CSCC(=O)Nc1cc(C(F)(F)F)ccc1N1CCCCC1 | inactive
12 | Oc1ccc(NC(=S)N=Nc2c(O)[nH]c3ccccc23)cc1 | inconclusive [inhibitor, single point]
13 | CCN1CCN(S(=O)(=O)c2ccc(Cl)c(C(=O)Nc3ccccc3N3CCCCC3)c2)CC1 | inactive
14 | CC(O)CNc1nc2c(c(=O)n(Cc3ccc(Cl)cc3)c(=O)n2C)n1C (stereo unspecified) | active: 11.2 µM
15 | O=C(c1ccccc1)n1nnc2ccccc21 | inconclusive [inhibitor, single point]
16 | CCCC1OC(c2ccco2)OCC1CC (stereo unspecified) | inactive
17 | Cc1cc(C)nc(SCC(=O)Oc2ccc3oc(=O)cc(C)c3c2)n1 | inactive
18 | Cc1c(CCOC(=O)C23CC4(C)CC(C)(CC(C)(C4)C2)C3)sc[n+]1CC(=O)c1ccccc1 | inconclusive [inhibitor, single point]
19 | Cc1ccc(S(=O)(=O)Nc2cc(Cl)c(O)c3ncccc23)cc1 | active: 7.08 µM
20 | O=C(c1ccc(Cl)cc1)N1CCOc2ccccc21 | inconclusive [inhibitor, single point]
21 | OCC1CCCN(C(=S)Nc2ccc(Nc3ccccc3)cc2)C1 (stereo unspecified) | inconclusive [inhibitor, single point]
22 | CC(C)(c1ccccc1)c1ccc(OCCCN2CCNCC2)cc1 | inconclusive [inhibitor, partial curve, poor fit]
23 | CC(C)(C)c1ccc(C(=O)N2CCCCC2CCN2CCCCC2)cc1 (stereo unspecified) | inactive
24 | O=C(O)CCN1CCc2ccccc2C1c1ccncc1 (stereo unspecified) | inactive

Row | SMILES | Potency
25 | O=C(/C=C\c1ccccc1)Nc1ccc(NC(=O)c2ccco2)cc1 | inconclusive [inhibitor, single point]
26 | C=CCn1c(SCc2nc3sc(C(=O)O)c(C)c3c(=O)[nH]2)nnc1-c1ccccc1 | inactive
27 | S=c1[nH]nc(Cc2ccccc2)n1-c1ccc(Cl)cc1 | inconclusive [inhibitor, partial curve]
28 | Nc1ccc(-c2nnc(-c3ccc(-c4ccccc4)cc3)o2)cc1 | inconclusive [inhibitor, single point]
29 | CCS(=O)(=O)c1ccc(C=NNc2nc3ccccc3o2)cc1 | inactive
30 | O=C1CC(c2ccc(O)c(O)c2)Oc2cc(O)cc(O)c21 (stereo unspecified) | inconclusive [inhibitor, single point]
31 | Cc1ccc2nc(SCC(=O)Nc3cc([N+](=O)[O-])ccc3F)[nH]c2c1 | inactive
32 | Fc1ccc(NC(=S)Nc2cccc3cnccc23)cc1 | inconclusive [inhibitor, partial curve, poor fit]
33 | O=C1N/C(=N\S(=O)(=O)Cc2ccccc2)S/C1=C/c1cc([N+](=O)[O-])ccc1O | inconclusive [inhibitor, single point]
34 | COc1ccc(Nc2ccnc3ccccc23)cc1 | inactive
35 | Cc1cnn(Cc2cccnc2)c1N | inconclusive [inhibitor, single point]
36 | COc1ccccc1OCCCOc1cccc(/C=C2\SC(=O)NC2=O)c1 | inconclusive [inhibitor, single point]
37 | Cc1ccc(-c2nn3c(C)nnc3s2)cc1NC(=O)c1ccc(-c2ccc(Cl)cc2Cl)o1 | inactive
38 | COc1ccc(-c2cc3c(=O)n(CC(=O)Nc4ccc(Cl)cc4)ncn3n2)cc1 | inactive
39 | O=C(O)c1ccc(N2C(=O)c3[nH]nc(-c4ccccc4)c3C2c2ccccc2)cc1 (stereo unspecified) | inconclusive [inhibitor, single point]
40 | Cn1c(N2CCC(C(N)=O)CC2)nc2c1c(=O)n(Cc1ccc(Cl)cc1)c(=O)n2C | inconclusive [inhibitor, partial curve, poor fit]
41 | CCCCn1c(-c2cc(Cl)ccc2OC)n[nH]c1=S | inconclusive [inhibitor, partial curve, poor fit]
42 | CC(c1ccccc1)c1nnc(NC(=O)Nc2ccccc2)s1 (stereo unspecified) | inactive
43 | O=C(CSc1nc(-c2cccs2)nc2cc(=O)[nH]n12)Nc1ccccc1Cl | inconclusive [inhibitor, single point]
44 | COc1cc(C(C#N)N2CCC(c3ccccc3)=N2)ccc1O (stereo unspecified) | active: 10 µM
45 | Cc1cc(C)c(SSc2nnnn2-c2ccccc2)c(C)c1 | inconclusive [inhibitor, single point]
46 | COc1ccc2c(c1)c(C(=O)N/N=C/c1cn(C)c3ccccc13)c(C)n2C | inconclusive [inhibitor, partial curve]
47 | Cc1ccc(N2C(=O)CS(=O)C(c3ccccc3)C2=O)cc1C (stereo unspecified) | inconclusive [inhibitor, partial curve, poor fit]
48 | CC1(C(=O)Nc2ncc(Cc3ccc(Br)cc3)s2)Cc2ccccc2C(=O)O1 (stereo unspecified) | inactive

Row | SMILES | Potency
49 | COc1ccc(S(=O)(=O)Nc2cccc(-c3ccc(N4CCCCCC4)nn3)c2)c(OC)c1 | inconclusive [inhibitor, partial curve, poor fit]
50 | Cc1ccc2c(c1)CCCN2C(=O)c1cc2ccccc2oc1=O | inactive
51 | CCOc1ccc(NC(=O)CC2C(=O)N(CC)C(=S)N2CCN2CCOCC2)cc1 (stereo unspecified) | inconclusive [inhibitor, single point]
52 | Cc1ccc2c(c1)NC(=O)C(CC(=O)NC1CCCCC1C)O2 (stereo unspecified) | inactive
53 | Cc1ccc(S(=O)(=O)N2C(=O)C(c3ccccc3)SC2=Nc2ccccc2)cc1 (stereo unspecified) | inconclusive [inhibitor, single point]
54 | Cc1ccc(-c2nc(Nc3ccc(O)cc3)c3ccccc3n2)cc1 | inactive
55 | O=C(O)CCCN1C(=O)/C(=C/c2ccc(-c3nc4ccccc4s3)o2)SC1=S | inconclusive [inhibitor, single point]
56 | CCN(c1ccccc1)S(=O)(=O)c1ccc(N2CCN(c3ccc(O)cc3)CC2)nc1 | inconclusive [inhibitor, partial curve]
57 | CCC(C)NC(=O)c1ccc2nc(Cc3ccccc3)oc2c1 (stereo unspecified) | inconclusive [inhibitor, full curve, poor fit]
58 | O=C(C1CCC1)N1CCN(c2ccc(C(F)(F)F)cc2[N+](=O)[O-])CC1 | inactive
59 | CCc1ccc(CNC(=O)C2CCN(C(=O)N3CC(CC)Oc4ccc(C)cc43)CC2)cc1 (stereo unspecified) | inconclusive [inhibitor, single point]
60 | Cc1ccc(S(=O)(=O)c2cc3c(=O)n4ccccc4nc3n(CCCN3CCOCC3)c2=N)cc1C | inconclusive [inhibitor, single point]
61 | COc1ccc(-n2c(O)c(/C=N/Nc3nc(C)cc(C)n3)c3ccccc3c2=O)cc1OC | inconclusive [inhibitor, partial curve]
62 | Cc1ccc(NC(=S)NNc2ncc(C(F)(F)F)cc2Cl)cc1 | inconclusive [inhibitor, partial curve]
63 | CCOc1ccc(CNc2ncc(-c3ccccc3)n2C)cc1 | inconclusive [inhibitor, partial curve, poor fit]
64 | Fc1ccc2c(c1)NC(c1ccncc1)=NC(c1cccs1)=N2 | inactive
65 | O=C(O)CSc1c(-c2cccs2)[nH]c2ccccc12 | inactive
66 | COc1ccc(NC(=O)c2cccc3c(-c4cccnc4)coc23)cc1 | inconclusive [inhibitor, partial curve]
67 | c1cc2c(cc1-c1[nH]ncc1CN1CC3C[C@@H]4CC1C[C@H](C3)C4)OCO2 | inconclusive [inhibitor, partial curve, poor fit]
68 | O=C(c1ccc(=O)oc1)N1CCOCC1 | active: 11.2 µM
69 | CCc1noc(C)c1C(=O)Nc1cc(Cl)ccc1N1CCCC1 | inconclusive [inhibitor, single point]
70 | CC(C)c1ccc(Oc2cccc3c2S(=O)(=O)N(C2CCCC2)CC(COCc2ccccc2)O3)cc1 (stereo unspecified) | inactive
71 | Cc1nc2c(C(=O)NC(C)c3ccccc3)cnn2c(C)c1Cc1ccccc1 (stereo unspecified) | inconclusive [inhibitor, partial curve, poor fit]
